Data taken from the supplement of paper PMC8728848.
Some of the results follow.

How the values were obtained:
Assay in all cases: glycan array binding signal (z-score within array); higher = stronger binding
Details in all cases: glycan notation: IUPAC condensed, linker removed
[1] = target: GalNAc(b1-4)GlcNAc(b1-2)Man
Summary of the method: (§1)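 Arrays were curated from the Consortium for Functional Glycomics database, 3228 in total, and kept only where the protein sequence was available. Binding is expressed as a within-array Z-score. This score was averaged across arrays of the same protein sequence at different concentrations or buffers and across linkers, and negative values can be read as non-binding.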

[2] = target: GalNAc(b1-4)GlcNAc(b1-2)Man(a1-3)[GalNAc(b1-4)GlcNAc(b1-2)Man(a1-6)]Man(b1-4)GlcNAc(b1-4)GlcNAc
Summary of the method: as §1

[3] = target: GalNAc(b1-4)GlcNAc(b1-3)GalNAc(b1-4)GlcNAc
Summary of the method: as §1

GalNAc(b1-4)GlcNAc6S = target: GalNAc(b1-4)GlcNAc6S
Summary of the method: as §1

GalNAc(b1-6)GalNAc = target: GalNAc(b1-6)GalNAc
Summary of the method: as §1

GalNAc3S(b1-4)GlcNAc = target: GalNAc3S(b1-4)GlcNAc
Summary of the method: as §1

GalNAc3S(b1-4)GlcNAc3S = target: GalNAc3S(b1-4)GlcNAc3S
Summary of the method: as §1

[4] = target: GalNAc3S(b1-4)[Fuc(a1-3)]GlcNAc
Summary of the method: as §1

GalNAc4S6S(b1-4)GlcNAc = target: GalNAc4S6S(b1-4)GlcNAc
Summary of the method: as §1

GalNAc6S(b1-4)GlcNAc = target: GalNAc6S(b1-4)GlcNAc
Summary of the method: as §1

Glc(a1-4)Glc = target: Glc(a1-4)Glc
Summary of the method: as §1

[5] = target: Glc(a1-4)Glc(a1-4)Glc(a1-4)Glc
Summary of the method: as §1

Glc(a1-6)Glc(a1-6)Glc = target: Glc(a1-6)Glc(a1-6)Glc
Summary of the method: as §1

[6] = target: Glc(a1-6)Glc(a1-6)Glc(a1-6)Glc
Summary of the method: as §1

Glc(b1-4)Glc = target: Glc(b1-4)Glc
Summary of the method: as §1

Glc(b1-6)Glc = target: Glc(b1-6)Glc
Summary of the method: as §1

GlcA(b1-3)Gal = target: GlcA(b1-3)Gal
Summary of the method: as §1

GlcA(b1-3)GlcNAc = target: GlcA(b1-3)GlcNAc
Summary of the method: as §1

GlcA(b1-6)Gal = target: GlcA(b1-6)Gal
Summary of the method: as §1

[7] = target: GlcA3S(b1-3)Gal(b1-4)GlcNAc(b1-2)Man
Summary of the method: as §1

[8] = target: GlcA3S(b1-3)Gal(b1-4)GlcNAc(b1-3)Gal(b1-4)Glc
Summary of the method: as §1

[9] = target: GlcNAc(a1-3)Gal(b1-4)GlcNAc
Summary of the method: as §1

[10] = target: GlcNAc(a1-4)Gal(b1-3)GlcNAc
Summary of the method: as §1

[11] = target: GlcNAc(a1-4)Gal(b1-4)GalNAc
Summary of the method: as §1

[12] = target: GlcNAc(a1-4)Gal(b1-4)GlcNAc
Summary of the method: as §1

[13] = target: GlcNAc(a1-4)Gal(b1-4)GlcNAc(b1-3)Gal(b1-4)Glc
Summary of the method: as §1

[14] = target: GlcNAc(a1-4)Gal(b1-4)GlcNAc(b1-3)Gal(b1-4)GlcNAc
Summary of the method: as §1

[15] = target: GlcNAc(a1-4)Gal(b1-4)GlcNAc(b1-3)Gal(b1-4)GlcNAc(b1-3)Gal(b1-4)GlcNAc
Summary of the method: as §1

[16] = target: GlcNAc(a1-4)Gal(b1-4)GlcNAc(b1-3)Gal(b1-4)[Fuc(a1-3)]GlcNAc(b1-3)Gal(b1-4)[Fuc(a1-3)]GlcNAc
Summary of the method: as §1

[17] = target: GlcNAc(a1-6)Gal(b1-4)GlcNAc
Summary of the method: as §1

[18] = target: GlcNAc(b1-2)Gal(b1-3)GalNAc
Summary of the method: as §1

[19] = target: GlcNAc(b1-2)Man(a1-3)[GlcNAc(b1-2)Man(a1-6)]Man(b1-4)GlcNAc(b1-4)GlcNAc
Summary of the method: as §1

[20] = target: GlcNAc(b1-2)Man(a1-3)[GlcNAc(b1-2)Man(a1-6)]Man(b1-4)GlcNAc(b1-4)[Fuc(a1-6)]GlcNAc
Summary of the method: as §1

[21] = target: GlcNAc(b1-2)Man(a1-3)[GlcNAc(b1-4)][GlcNAc(b1-2)Man(a1-6)]Man(b1-4)GlcNAc(b1-4)GlcNAc
Summary of the method: as §1

[22] = target: GlcNAc(b1-2)Man(a1-3)[GlcNAc(b1-4)][GlcNAc(b1-2)Man(a1-6)]Man(b1-4)GlcNAc(b1-4)[Fuc(a1-6)]GlcNAc
Summary of the method: as §1

[23] = target: GlcNAc(b1-2)[GlcNAc(b1-4)]Man(a1-3)[GlcNAc(b1-2)Man(a1-6)]Man(b1-4)GlcNAc(b1-4)GlcNAc
Summary of the method: as §1

[24] = target: GlcNAc(b1-2)[GlcNAc(b1-4)]Man(a1-3)[GlcNAc(b1-4)][GlcNAc(b1-2)Man(a1-6)]Man(b1-4)GlcNAc(b1-4)GlcNAc
Summary of the method: as §1

[25] = target: GlcNAc(b1-2)[GlcNAc(b1-4)]Man(a1-3)[GlcNAc(b1-4)][GlcNAc(b1-2)[GlcNAc(b1-6)]Man(a1-6)]Man(b1-4)GlcNAc(b1-4)GlcNAc
Summary of the method: as §1

[26] = target: GlcNAc(b1-2)[GlcNAc(b1-4)]Man(a1-3)[GlcNAc(b1-4)][GlcNAc(b1-2)[GlcNAc(b1-6)]Man(a1-6)]Man(b1-4)GlcNAc(b1-4)[Fuc(a1-6)]GlcNAc
Summary of the method: as §1

[27] = target: GlcNAc(b1-2)[GlcNAc(b1-6)]Man(a1-6)[GlcNAc(b1-2)Man(a1-3)]Man(b1-4)GlcNAc(b1-4)GlcNAc
Summary of the method: as §1

[28] = target: GlcNAc(b1-2)[GlcNAc(b1-6)]Man(a1-6)[GlcNAc(b1-2)Man(a1-3)]Man(b1-4)GlcNAc(b1-4)[Fuc(a1-6)]GlcNAc
Summary of the method: as §1

[29] = target: GlcNAc(b1-2)[GlcNAc(b1-6)]Man(a1-6)[GlcNAc(b1-4)][GlcNAc(b1-2)Man(a1-3)]Man(b1-4)GlcNAc(b1-4)GlcNAc
Summary of the method: as §1

GlcNAc(b1-3)Fuc = target: GlcNAc(b1-3)Fuc
Summary of the method: as §1

GlcNAc(b1-3)Gal = target: GlcNAc(b1-3)Gal
Summary of the method: as §1

[30] = target: GlcNAc(b1-3)Gal(b1-3)GalNAc
Summary of the method: as §1

B1: AT1G15820(NC) (Arabidopsis thaliana) (protein)
chain: MAMAVSGAVLSGLGSSFLTGGKRGATALASGVGDAIAPFSFGSLLGTQLLLMGWVESKRWVDFFNPDSQSVEWATPWSKTAENFANYTGDQGYPGGRFFDPLGLAGKNRDGVYEPDFEKLERLKLAEIKHSRLAMVAMLIFYFEAGQGKTPLGALGL
glycan array binding signal (z-score) [1]: -0.306
glycan array binding signal (z-score) [2]: 1.2
glycan array binding signal (z-score) [3]: -0.212
glycan array binding signal (z-score) (GalNAc(b1-4)GlcNAc6S): -0.282
glycan array binding signal (z-score) (GalNAc(b1-6)GalNAc): -0.289
glycan array binding signal (z-score) (GalNAc3S(b1-4)GlcNAc): -0.485
glycan array binding signal (z-score) (GalNAc3S(b1-4)GlcNAc3S): -0.678
glycan array binding signal (z-score) [4]: -0.394
glycan array binding signal (z-score) (GalNAc4S6S(b1-4)GlcNAc): -0.427
glycan array binding signal (z-score) (GalNAc6S(b1-4)GlcNAc): 0.156
glycan array binding signal (z-score) (Glc(a1-4)Glc): 0.253
glycan array binding signal (z-score) [5]: -0.314
glycan array binding signal (z-score) (Glc(a1-6)Glc(a1-6)Glc): -0.276
glycan array binding signal (z-score) [6]: -0.393
glycan array binding signal (z-score) (Glc(b1-4)Glc): 2
glycan array binding signal (z-score) (Glc(b1-6)Glc): -0.183
glycan array binding signal (z-score) (GlcA(b1-3)Gal): -0.102
glycan array binding signal (z-score) (GlcA(b1-3)GlcNAc): 0.028
glycan array binding signal (z-score) (GlcA(b1-6)Gal): -0.509
glycan array binding signal (z-score) [7]: -0.63
glycan array binding signal (z-score) [8]: -0.568
glycan array binding signal (z-score) [9]: 0.391
glycan array binding signal (z-score) [10]: -0.143
glycan array binding signal (z-score) [11]: -0.41
glycan array binding signal (z-score) [12]: -0.328
glycan array binding signal (z-score) [13]: -0.564
glycan array binding signal (z-score) [14]: -0.177
glycan array binding signal (z-score) [15]: -0.156
glycan array binding signal (z-score) [16]: -0.106
glycan array binding signal (z-score) [17]: -0.626
glycan array binding signal (z-score) [18]: 0.572
glycan array binding signal (z-score) [19]: -0.455
glycan array binding signal (z-score) [20]: -0.44
glycan array binding signal (z-score) [21]: -0.527
glycan array binding signal (z-score) [22]: -0.535
glycan array binding signal (z-score) [23]: -0.544
glycan array binding signal (z-score) [24]: -0.219
glycan array binding signal (z-score) [25]: -0.358
glycan array binding signal (z-score) [26]: -0.424
glycan array binding signal (z-score) [27]: -0.221
glycan array binding signal (z-score) [28]: -0.03
glycan array binding signal (z-score) [29]: -0.747
glycan array binding signal (z-score) (GlcNAc(b1-3)Fuc): -0.262
glycan array binding signal (z-score) (GlcNAc(b1-3)Gal): -0.534
glycan array binding signal (z-score) [30]: -0.201
